# Test results from the supplement of paper PMC8728848.
# This is one part of the list.
# B1: LecB LY19 (Pseudomonas aeruginosa) (protein)
# chain: MATQGVFTLPANTQFGVTAFANSAGTQTVNVQVNNETVATFTGQSTNNGIIGSKVLNSGGGGKVQILVSVNGRSSDLVSAQVILANELNFALVGSEDSTDNDYNDAVVVINWPLG
# What was measured:
# Assay in all cases: glycan array binding signal (z-score within array); higher = stronger binding
# Details in all cases: glycan notation: IUPAC condensed, linker removed
# Gal(b1-4)Glc = molecular target: Gal(b1-4)Glc
# How it was run: (§1)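 From the Consortium for Functional Glycomics database, 3228 arrays were curated, keeping only those whose protein sequence was available. Binding is given as a within-array Z-score averaged across arrays sharing a protein sequence and across linkers. Negative Z-scores can be read as non-binding.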
# Gal(b1-4)Glc6S = molecular target: Gal(b1-4)Glc6S
# How it was run: as §1
# Gal(b1-4)GlcNAc = molecular target: Gal(b1-4)GlcNAc
# How it was run: as §1
# [1] = molecular target: Gal(b1-4)GlcNAc(a1-6)Gal(b1-4)GlcNAc
# How it was run: as §1
# Gal(b1-4)GlcNAc(b1-2)Man = molecular target: Gal(b1-4)GlcNAc(b1-2)Man
# How it was run: as §1
# [2] = molecular target: Gal(b1-4)GlcNAc(b1-2)Man(a1-3)Man(b1-4)GlcNAc(b1-4)GlcNAc
# How it was run: as §1
# [3] = molecular target: Gal(b1-4)GlcNAc(b1-2)Man(a1-3)[Gal(b1-4)GlcNAc(b1-2)Man(a1-6)]Man(b1-4)GlcNAc(b1-4)GlcNAc
# How it was run: as §1
# [4] = molecular target: Gal(b1-4)GlcNAc(b1-2)Man(a1-3)[Gal(b1-4)GlcNAc(b1-2)Man(a1-6)]Man(b1-4)GlcNAc(b1-4)[Fuc(a1-6)]GlcNAc
# How it was run: as §1
# [5] = molecular target: Gal(b1-4)GlcNAc(b1-2)Man(a1-3)[Gal(b1-4)GlcNAc(b1-2)Man(a1-6)][Gal(b1-4)GlcNAc(b1-4)]Man(b1-4)GlcNAc(b1-4)[Fuc(a1-6)]GlcNAc
# How it was run: as §1
# [6] = molecular target: Gal(b1-4)GlcNAc(b1-2)Man(a1-3)[Gal(b1-4)GlcNAc(b1-2)Man(a1-6)][GlcNAc(b1-4)]Man(b1-4)GlcNAc(b1-4)[Fuc(a1-6)]GlcNAc
# How it was run: as §1
# [7] = molecular target: Gal(b1-4)GlcNAc(b1-2)Man(a1-3)[GlcNAc(b1-2)Man(a1-6)]Man(b1-4)GlcNAc(b1-4)GlcNAc
# How it was run: as §1
# [8] = molecular target: Gal(b1-4)GlcNAc(b1-2)Man(a1-3)[GlcNAc(b1-4)][Gal(b1-4)GlcNAc(b1-2)Man(a1-6)]Man(b1-4)GlcNAc(b1-4)GlcNAc
# How it was run: as §1
# [9] = molecular target: Gal(b1-4)GlcNAc(b1-2)Man(a1-3)[Man(a1-6)]Man(b1-4)GlcNAc(b1-4)GlcNAc
# How it was run: as §1
# [10] = molecular target: Gal(b1-4)GlcNAc(b1-2)Man(a1-6)Man(b1-4)GlcNAc(b1-4)GlcNAc
# How it was run: as §1
# [11] = molecular target: Gal(b1-4)GlcNAc(b1-2)Man(a1-6)[GlcNAc(b1-2)Man(a1-3)]Man(b1-4)GlcNAc(b1-4)GlcNAc
# How it was run: as §1
# [12] = molecular target: Gal(b1-4)GlcNAc(b1-2)Man(a1-6)[Man(a1-3)]Man(b1-4)GlcNAc(b1-4)GlcNAc
# How it was run: as §1
# [13] = molecular target: Gal(b1-4)GlcNAc(b1-2)[Gal(b1-4)GlcNAc(b1-4)]Man(a1-3)[Gal(b1-4)GlcNAc(b1-2)Man(a1-6)]Man(b1-4)GlcNAc(b1-4)GlcNAc
# How it was run: as §1
# [14] = molecular target: Gal(b1-4)GlcNAc(b1-2)[Gal(b1-4)GlcNAc(b1-4)]Man(a1-3)[Gal(b1-4)GlcNAc(b1-2)[Gal(b1-4)GlcNAc(b1-6)]Man(a1-6)]Man(b1-4)GlcNAc(b1-4)GlcNAc
# How it was run: as §1
# [15] = molecular target: Gal(b1-4)GlcNAc(b1-2)[Gal(b1-4)GlcNAc(b1-4)]Man(a1-3)[GlcNAc(b1-4)][Gal(b1-4)GlcNAc(b1-2)Man(a1-6)]Man(b1-4)GlcNAc(b1-4)GlcNAc
# How it was run: as §1
# [16] = molecular target: Gal(b1-4)GlcNAc(b1-2)[Gal(b1-4)GlcNAc(b1-4)]Man(a1-3)[GlcNAc(b1-4)][Gal(b1-4)GlcNAc(b1-2)[Gal(b1-4)GlcNAc(b1-6)]Man(a1-6)]Man(b1-4)GlcNAc(b1-4)GlcNAc
# How it was run: as §1
# [17] = molecular target: Gal(b1-4)GlcNAc(b1-2)[Gal(b1-4)GlcNAc(b1-6)]Man(a1-6)[Gal(b1-4)GlcNAc(b1-2)Man(a1-3)]Man(b1-4)GlcNAc(b1-4)GlcNAc
# How it was run: as §1
# [18] = molecular target: Gal(b1-4)GlcNAc(b1-2)[Gal(b1-4)GlcNAc(b1-6)]Man(a1-6)[Gal(b1-4)GlcNAc(b1-2)Man(a1-3)]Man(b1-4)GlcNAc(b1-4)[Fuc(a1-6)]GlcNAc
# How it was run: as §1
binder,measurement,setting,value
B1,glycan array binding signal (z-score),Gal(b1-4)Glc,-0.522
same,glycan array binding signal (z-score),Gal(b1-4)Glc6S,-0.482
same,glycan array binding signal (z-score),Gal(b1-4)GlcNAc,-0.551
same,glycan array binding signal (z-score),[1],-0.55
same,glycan array binding signal (z-score),Gal(b1-4)GlcNAc(b1-2)Man,-0.443
same,glycan array binding signal (z-score),[2],-0.552
same,glycan array binding signal (z-score),[3],-0.536
same,glycan array binding signal (z-score),[4],-0.001
same,glycan array binding signal (z-score),[5],0.518
same,glycan array binding signal (z-score),[6],0.308
same,glycan array binding signal (z-score),[7],-0.461
same,glycan array binding signal (z-score),[8],-0.553
same,glycan array binding signal (z-score),[9],-0.369
same,glycan array binding signal (z-score),[10],-0.536
same,glycan array binding signal (z-score),[11],-0.536
same,glycan array binding signal (z-score),[12],0.834
same,glycan array binding signal (z-score),[13],-0.3
same,glycan array binding signal (z-score),[14],-0.268
same,glycan array binding signal (z-score),[15],-0.553
same,glycan array binding signal (z-score),[16],-0.555
same,glycan array binding signal (z-score),[17],-0.47
same,glycan array binding signal (z-score),[18],0.846
